Data: the RNAGym collection of RNA variant scans (doi:10.7554/elife.90254)
Read counts are not given, so values of variants with three or more changes are uncertain.

B1: LINE1-mini (parent)
chain: GGCAGAGCUCAACACAGCGUGGCAAAGUGGCUGUGGCUAGACUGCC

Variants of: B1
Assay: self-cleavage, relative activity (ratio to wild type); higher = more cleavage; in vitro, sequencing; the parent is a self-cleaving ribozyme

Variant	self-cleavage
GGCAGAGCUUACCAAAGCGUGGCAAAGUGGCAGUGGAAAGACUUCC [C10U A12C C15A U32A C37A U38A G44U]	0.01
GGCAGAGCUCGACACAGCCUGGCAAAGAGGCUGUGGCUAGACUGCC [A11G G19C U28A]	0.01
GGCAGAGUUCAAAACAGCGUGUCAAAGUGGCUGUGGCUAGCCUGCC [C8U C13A G22U A41C]	0.14
GGCAGAGCUCAACAAAGCGUGGCAAAGUGGCUGUCGCUAGACAGCC [C15A G35C U43A]	0.03
UGGACAGAUCAACACAGCGUGUCAAAGUGGCAGUGGCUAGACGGCC [G1U C3G G5C C8A G22U U32A U43G]	0.45
GGCAGAGCUCAACACUGCGUGGCAAAAGUGCGGUGUCUAAACUGCC [A16U G27A U28G G29U U32G G36U G40A]	0.11
GGCACAGCUCAACACAGCGCGGCAAAGUGGCUGUGGCUUGACUGCG [G5C U20C A39U C46G]	0.29
GGCAGAGCUCAACGCAGCGUGGCGAAGUGGCUUUGGCUAGACUGCC [A14G A24G G33U]	0.02
GGCAGAGAUCAACACAGUGUGGAAAGCUGGCUCUGGCUAGACUGCC [C8A C18U C23A A26G G27C G33C]	0.03
CGCAGAGCUCAACACAGCGUGGCAAAGUGGCUGUGCAUAGACUGCC [G1C G36C C37A]	0.02
GGCUGAGCCCAACCCAGCGUGGCAUAGUGGCUGUGGCUAGACUGCC [A4U U9C A14C A25U]	0.12
GGCAGAGCUCCACACAGCGUGGCAAAGUGGCUGUGUCUAGACUACC [A11C G36U G44A]	0.02
GGCAGAGCUCAAUACAGCGUGGCAAAGUGGCAGUCGCUAGACUGCC [C13U U32A G35C]	0.06
GGCAGAGCUCAACACAGCGUGGCGGAGUGGCUGAGGCUAGACUGCC [A24G A25G U34A]	0.02
GCCAGCGCUCAACACAUCGUGGCAAAGUGGCUGGGGCUAGACUGCC [G2C A6C G17U U34G]	0.04
GUCAGAGCUCAACUCAGCGUGGCAAAGUGUCUGUGACUAGAGGGCC [G2U A14U G30U G36A C42G U43G]	0.13
GGCAGAGCUCAACACAGCGUCGCAAAGUGCCUGUGGCUAGACUGUU [G21C G30C C45U C46U]	0.41
GGCAGAGCUGAACACAGCGUGGAAAAGUGGCUGUGGCUAGACUGUC [C10G C23A C45U]	0.11
GGCUGAGCUCAACACAGCGUUGCAAAGUGGCUGUGGCUAUACUGCC [A4U G21U G40U]	0.09

Variant	self-cleavage
GGAAGAGCUCAACACAGCGGGGCAAAGUGGCUGUGGCUAGACUCCC [C3A U20G G44C]	0.73
GGCAGAGAUCAACACAGCGUGGCAAAGUGGCUGUGGUUAGACUGAC [C8A C37U C45A]	0.17
GGCAGAGAUCAACACAGCGUGGGAAAGUGGCUAUGGUUAGACUUCC [C8A C23G G33A C37U G44U]	0.1
GGCAGUGCGUAACACAGCGUGGCAAAGUGGCUGUGGCUUGACUGCC [A6U U9G C10U A39U]	0.06
AGCAGAUCUCAAUACAGCGUGGCAAAGUGGCUGUGGCUAGCCUGCC [G1A G7U C13U A41C]	0.08
GGCAGAGCUCAGUACAGCGUGGUAAAGUGGCUAUGGCUAGACUGCC [A12G C13U C23U G33A]	0
GGCAGAGCUCGAAACAGCGCGGAAAAGUGGCUGUGGCUAGACUGCC [A11G C13A U20C C23A]	0.01
GGCAUAGCUCAACACAGCUUGGAAAAGUGGCUGUGACUAGACUGCC [G5U G19U C23A G36A]	0.03
GGCACGGCUCAGCACAGCGUGGCAAAGUGGCUGUGGAUAGACUUCC [G5C A6G A12G C37A G44U]	0.03
UUCAGAGAUCAACACAGGGUGGCAAAGUGGCUGUGGCUAGACCCCC [G1U G2U C8A C18G U43C G44C]	0.03
GGCAGAGUUCGAUACAGCGUGGCAAAGUUGCUGUGCCUAGACUGCC [C8U A11G C13U G29U G36C]	0.03
GGCAGAGCUCAACACAGCGUGGCAAAGUGGUUGUCUCUAGACUGCC [C31U G35C G36U]	0.1
GGCAGAGCUCAACACAGCGUGGCAAAUUGGCUGUGACUAGACUGCA [G27U G36A C46A]	0.04
GGCAGAGCUCAACACAGCAUGGUAAAGUGGCUGUGGCUAAACUGCC [G19A C23U G40A]	0.18
GGCAGAGCUCAACACAUCGUGGCAAAGUGGCUGUGCCUACACUGAC [G17U G36C G40C C45A]	0
GGCAGAGCUCAACACAGCGUCUCAAAGUGGCUGUGGCUAGAAUGCC [G21C G22U C42A]	0.01
GGCUGAGCUCAUCACAGCGUGGAAAAGUGGCUGUGGCUAGACUCCA [A4U A12U C23A G44C C46A]	0.1
GGCAGAGCUAAACACAGCCUGGCAAAGUGGCUGUGGCGAGACUUCC [C10A G19C U38G G44U]	0.01
GGCAGAGCUCAUCACAGCGUGGCAAAGUGGCUGUGGCUAGACGACC [A12U U43G G44A]	0.12

Variant	self-cleavage
GGCAGAGCUCAACACAGCGUGCCAAAGUGGCAGUAGCUAGAGUGCC [G22C U32A G35A C42G]	0.06
GGCAGAGCUCAACACAGGGUGUUAAAGUGGCUGUGUCUAGUCUGCC [C18G G22U C23U G36U A41U]	0.04
GGCAGAGCGCAACACAGCGUGGCAAAGUGGCUGUCCCUAGACUCCC [U9G G35C G36C G44C]	0.11
GGUAGAACUCAACAAAGCGUGGCAAACUGGCUGUGGCUAGACUGCC [C3U G7A C15A G27C]	0.3
GGCAGAGCUUAACACAGCGUGGCAAAGUGGCUGUGGCACGACUGCC [C10U U38A A39C]	0.08
GGCAGUGCUCCACACAGAGUGGCAAAGUAGCUGUGGCUAGACUGCC [A6U A11C C18A G29A]	0.07
GGCAGAGCUCAAUAAAGUUUGGCAAAGUGGCUGUGGCUGGACUGCC [C13U C15A C18U G19U A39G]	0.42
GGCAGAGCUAAAAACAGCGUGGCAAAGUGGCUGUCGCUAGACUGCC [C10A C13A G35C]	0.03
GGCAGAGCUCAACACAGCGUGGCAAUGUUGCUUUGGCUAAACUGCC [A26U G29U G33U G40A]	0.14
GGCAGAGUUCAACAAACCGCGGCAAAGUGUCUGAGGCUAGACUGCC [C8U C15A G17C U20C G30U U34A]	0.2
GACAGAGCUCAAGACAGCGUGGGAAAGUGGCUGUGGCUAGACUGCA [G2A C13G C23G C46A]	0.15
GGCAGAGCUCAACACAGCGUGGCAAAGUGCCUCUGGCUAGACUGUC [G30C G33C C45U]	0.03
CGCACAGCUCAACACAACGUGGCAAAGUGGCUGUGGGUAGACUGCC [G1C G5C G17A C37G]	0.01
GGCAGAGCUCAACACAGCGUGGAAAAGUGCCUAUGGCUAGAAUGCC [C23A G30C G33A C42A]	0.09
GGCAGAGCUCAACACAGCGUGGAAAAGUGCCUGUGGCUAGACUCCC [C23A G30C G44C]	0.09
CGCAGAGCUCAACACAGCGUGGCACAUUGGCUGUGGCUAGACUGCC [G1C A25C G27U]	0.07
GGCGGAGCUCAACAUAGCGUGGCACAGUGGCUGUGUCUAGACUGCC [A4G C15U A25C G36U]	0.19
GGCAGAGCUCAACACAGCUUGUUAAAGUGGCUGUGGCUAGACUGCC [G19U G22U C23U]	0.29
